Experimental data published in the supplement of paper PMC4967469.
A lower IC50 marks a more sensitive line; a fit beyond the top or the lowest dose is shown as a bound at that dose. AUC is the area under the same curve over the 256-fold range up to the top dose, as a fraction; the more sensitive the line, the further below 1. For part of these data: A top dose marked as inferred comes from the curve model; the source does not state it. For part of these data: Where an entry number is given, a second screen of the drug exists; the two often differ.

What was measured:
Assay in all cases: Viability of human cancer cell lines after 72 h of drug (GDSC screen)
[1] = compound: C=CC(=O)Nc1cc(-n2c(=O)ccc3cnc4ccc(-c5cn[nH]c5)cc4c32)ccc1C [QL-X-138]; conditions: top dose 10.24 µM; top dose inferred
Description: (§1)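 Human cancer cell lines in 384-well plates, medium with 10% serum, drug for 72 h over a 256-fold dose range (nine 2-fold or five 4-fold steps up to the top dose). Adherent lines were fixed and stained with the nucleic acid dye Syto60, suspension lines read with resazurin; signal relative to control wells, capped at 0 and 100%. One two-parameter sigmoid per drug and line, fitted in a mixed model over all curves with the slope shared within a line.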

[2] = compound: COc1cc(O)c2c(c1)/C=C/C[C@H](O)[C@H](O)C(=O)/C=C\C[C@H](C)OC2=O [(5Z)-7-Oxozeaenol]; conditions: top dose 10 µM; top dose inferred
Description: as §1

[3] = compound: C[C@]1(c2nc3c(C(N)=O)cccc3[nH]2)CCCN1 [ABT-888]; conditions: top dose 5 µM; top dose inferred
Description: as §1

[4] = compound: CCn1c(-c2nonc2N)nc2cnc(Oc3cccc(NC(=O)c4ccc(OCCN5CCOCC5)cc4)c3)cc21 [GSK269962A]; conditions: top dose inferred
Description: as §1

[5] = compound: C/C=C(/C)C(=O)O[C@H]1C(C)=C2[C@H]([C@@H]1OC(=O)CCCCCCC)[C@@](C)(OC(C)=O)C[C@H](OC(=O)CCC)[C@@]1(O)[C@H]2OC(=O)[C@@]1(C)O [Thapsigargin]; conditions: top dose 0.512 µM; top dose inferred
Description: as §1

[6] = compound: COc1cc(N2CCC(O)CC2)ccc1Nc1cc(Nc2ccccc2S(=O)(=O)C(C)C)c2cc[nH]c2n1 [MPS-1-IN-1]; conditions: top dose 20 µM; top dose inferred
Description: as §1

[7] = compound: Cc1cnc(-c2cnc(NCCNc3ccc(C#N)cn3)nc2-c2ccc(Cl)cc2Cl)[nH]1 [CHIR-99021]
Description: as §1

[8] = compound: Cc1ccc(F)c(NC(=O)Nc2ccc(-c3cccc4[nH]nc(N)c34)cc2)c1 [ABT-869]; conditions: top dose 1.024 µM; top dose inferred
Description: as §1

[9] = compound: COc1cc2ncnc(-n3nc(-c4ccccn4)nc3N)c2cc1OC [CP466722]; conditions: top dose 16 µM; top dose inferred
Description: as §1

[10] = compound: O=c1cc(-c2cccc3c2Sc2ccccc2S3)oc(N2CCOCC2)c1 [KU-55933]; conditions: top dose 10 µM
Description: as §1

[11] = compound: COc1nc(C)cnc1NS(=O)(=O)c1cccnc1-c1ccc(-c2nnco2)cc1 [Zibotentan]; conditions: top dose 20 µM; top dose inferred
Description: as §1

[12] = compound: Cc1ccc(-c2c(C(=O)CCl)n(CCCO)c3ncnc(N)c23)cc1 [CMK]; conditions: top dose 4 µM; top dose inferred
Description: as §1

[13] = compound: Nc1ccn([C@@H]2O[C@H](CO)[C@@H](O)[C@@H]2O)c(=O)n1 [Cytarabine]; conditions: top dose 2 µM
Description: as §1

[14] = top dose 2.5 µM, screen: GDSC drug entry 127
[15] = top dose 5 µM, screen: GDSC drug entry 1192
[16] = top dose 2.56 µM, screen: GDSC drug entry 154
[17] = top dose 10 µM, screen: GDSC drug entry 1241, top dose inferred

| Cell Line | AUC [1] | IC50 [1] | AUC [2] | IC50 [2] | AUC [3] | IC50 [3] | AUC [4, 14] | IC50 [4, 14] | AUC [4, 15] | IC50 [4, 15] | AUC [5] | IC50 [5] | AUC [6] | IC50 [6] | AUC [7, 16] | IC50 [7, 16] | AUC [7, 17] | IC50 [7, 17] | AUC [8] | IC50 [8] | AUC [9] | IC50 [9] | AUC [10] | IC50 [10] | AUC [11] | IC50 [11] | AUC [12] | IC50 [12] | AUC [13] | IC50 [13] |
| --- | --- | --- | --- | --- | --- | --- | --- | --- | --- | --- | --- | --- | --- | --- | --- | --- | --- | --- | --- | --- | --- | --- | --- | --- | --- | --- | --- | --- | --- | --- |
| NCI-H187 (small cell lung carcinoma, suspension) | 0.675 | 2.07 µM | 0.957 | > 10 µM | 0.988 | > 5 µM | 0.987 | > 2.5 µM | 0.97 | > 5 µM | 0.553 | 0.0453 µM | 0.935 | > 20 µM | 0.987 | > 2.56 µM | 0.987 | > 10 µM | 0.983 | > 1.02 µM | 0.825 | 10.7 µM | 0.979 | > 10 µM | 0.987 | > 20 µM | 0.988 | > 4 µM | 0.955 | > 2 µM |
| NCI-H209 (small cell lung carcinoma, suspension) | 0.595 | 1.19 µM | 0.946 | > 10 µM | 0.954 | > 5 µM | 0.915 | > 2.5 µM | 0.899 | > 5 µM | 0.436 | 0.0212 µM | 0.876 | > 20 µM | 0.984 | > 2.56 µM | 0.981 | > 10 µM | 0.977 | > 1.02 µM | 0.74 | 5.15 µM | 0.944 | > 10 µM | 0.979 | > 20 µM | 0.986 | > 4 µM | 0.818 | 1.23 µM |
| NCI-H211 (small cell lung carcinoma, adherent) | 0.545 | 0.848 µM | 0.847 | 7.06 µM | 0.985 | > 5 µM | 0.842 | 1.69 µM | 0.924 | > 5 µM | 0.276 | 0.00757 µM | 0.808 | 10 µM | 0.988 | > 2.56 µM | 0.987 | > 10 µM | 0.969 | > 1.02 µM | 0.769 | 5.87 µM | 0.981 | > 10 µM | 0.988 | > 20 µM | 0.981 | > 4 µM | 0.81 | 1.02 µM |
| NCI-H226 (lung squamous cell carcinoma, adherent) | 0.836 | 7.29 µM | 0.796 | 4.95 µM | 0.987 | > 5 µM | 0.983 | > 2.5 µM | 0.866 | 4.87 µM | 0.314 | 0.00938 µM | 0.787 | 9.16 µM | 0.987 | > 2.56 µM | 0.893 | > 10 µM | 0.987 | > 1.02 µM | 0.799 | 8.1 µM | 0.987 | > 10 µM | 0.986 | > 20 µM | 0.855 | 3.44 µM | 0.884 | > 2 µM |
| NCI-H322M (lung adenocarcinoma, suspension) | 0.824 | 8.05 µM | 0.978 | > 10 µM | 0.983 | > 5 µM | 0.98 | > 2.5 µM | 0.97 | > 5 µM | 0.96 | > 0.512 µM | 0.924 | > 20 µM | 0.986 | > 2.56 µM | 0.983 | > 10 µM | 0.985 | > 1.02 µM | 0.852 | > 16 µM | 0.937 | > 10 µM | 0.985 | > 20 µM | 0.918 | > 4 µM | 0.987 | > 2 µM |
| NCI-H345 (small cell lung carcinoma, suspension) | 0.869 | > 10.2 µM | 0.954 | > 10 µM | 0.99 | > 5 µM | 0.99 | > 2.5 µM | 0.96 | > 5 µM | 0.547 | 0.0433 µM | 0.99 | > 20 µM | 0.99 | > 2.56 µM | 0.989 | > 10 µM | 0.987 | > 1.02 µM | 0.979 | > 16 µM | 0.99 | > 10 µM | 0.99 | > 20 µM | 0.93 | > 4 µM | 0.984 | > 2 µM |
| NCI-H446 (small cell lung carcinoma, semi-adherent) | 0.424 | 0.391 µM | 0.775 | 4.24 µM | 0.986 | > 5 µM | 0.883 | > 2.5 µM | 0.846 | 4.04 µM | 0.538 | 0.041 µM | 0.882 | > 20 µM | 0.985 | > 2.56 µM | 0.984 | > 10 µM | 0.985 | > 1.02 µM | 0.716 | 4.3 µM | 0.985 | > 10 µM | 0.985 | > 20 µM | 0.9 | > 4 µM | 0.893 | > 2 µM |
| NCI-H524 (small cell lung carcinoma, suspension) | 0.659 | 1.68 µM | 0.748 | 2.93 µM | 0.988 | > 5 µM | 0.882 | 2.16 µM | 0.698 | 1.05 µM | 0.533 | 0.039 µM | 0.988 | > 20 µM | 0.989 | > 2.56 µM | 0.989 | > 10 µM | 0.987 | > 1.02 µM | 0.75 | 4.75 µM | 0.965 | > 10 µM | 0.989 | > 20 µM | 0.952 | > 4 µM | 0.985 | > 2 µM |
